Test results from PubChem BioAssay AID504339 (National Center for Advancing Translational Sciences (NCATS), 2011).
Among all 390,000 compounds or so, about 17,000 (4.4%) were called active. The inconclusive results got no clear call from the source; some entries with a clear call stand among them for comparison. The call rests on the fitted dose curve; in most records, active means well fitted inhibition curve with a large enough effect; inconclusive means small, poorly fitted or top-dose-only effect; inactive means no such curve, though single readings can be large or run the other way. Where the call is inconclusive, the potency comes from a doubtful curve fit.
Further: nearly all actives have a fitted effect of over 50% in size.
On the % scale 0 is the no-effect control and ±100 the full control effect; potency means the concentration at half of the fitted maximal effect; tags describe the fitted curve by direction and shape.

These molecules were tested against Lysine-specific demethylase 4A (Homo sapiens) (UniProt O75164) (assay: qHTS Assay for Inhibitors of JMJD2A-Tudor Domain). Conditions: AlphaScreen JMJD2A-Tudor / H3K4me3 peptide binding; activity change, negative = inhibition: at 114 µM (top of the series).
UniProt O75164, sequence (O75164 whole entry, looked up, the tested form may be a part): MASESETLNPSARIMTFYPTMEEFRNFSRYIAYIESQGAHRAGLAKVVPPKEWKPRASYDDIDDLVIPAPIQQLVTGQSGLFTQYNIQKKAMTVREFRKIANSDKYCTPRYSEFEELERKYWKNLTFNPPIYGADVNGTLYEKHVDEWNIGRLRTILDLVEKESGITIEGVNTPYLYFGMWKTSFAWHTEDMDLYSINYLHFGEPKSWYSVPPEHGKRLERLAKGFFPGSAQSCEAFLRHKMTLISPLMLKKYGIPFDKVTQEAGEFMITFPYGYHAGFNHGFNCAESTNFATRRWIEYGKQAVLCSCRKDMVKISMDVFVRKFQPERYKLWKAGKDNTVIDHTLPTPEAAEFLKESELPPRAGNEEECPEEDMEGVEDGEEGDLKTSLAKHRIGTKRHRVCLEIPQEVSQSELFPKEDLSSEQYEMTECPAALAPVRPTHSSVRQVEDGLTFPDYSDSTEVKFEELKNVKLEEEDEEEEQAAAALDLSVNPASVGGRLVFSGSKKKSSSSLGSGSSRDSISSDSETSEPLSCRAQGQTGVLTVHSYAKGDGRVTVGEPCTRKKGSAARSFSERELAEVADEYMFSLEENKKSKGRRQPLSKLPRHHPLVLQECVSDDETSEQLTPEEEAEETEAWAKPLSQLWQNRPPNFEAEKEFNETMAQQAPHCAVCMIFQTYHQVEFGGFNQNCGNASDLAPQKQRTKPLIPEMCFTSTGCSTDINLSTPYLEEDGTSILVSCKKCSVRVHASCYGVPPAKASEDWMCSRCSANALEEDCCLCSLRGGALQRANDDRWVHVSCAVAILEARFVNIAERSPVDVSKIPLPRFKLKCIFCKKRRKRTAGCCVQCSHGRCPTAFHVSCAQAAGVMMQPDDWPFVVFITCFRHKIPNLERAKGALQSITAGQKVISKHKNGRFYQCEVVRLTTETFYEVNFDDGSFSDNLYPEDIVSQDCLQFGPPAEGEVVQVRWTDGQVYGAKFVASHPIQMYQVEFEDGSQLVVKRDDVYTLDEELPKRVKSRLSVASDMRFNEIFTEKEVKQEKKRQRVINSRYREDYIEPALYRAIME
In the case of CC(C)c1ccc(-n2c(O)c(/C=N/NC(=O)c3ccncc3)c(=O)[nH]c2=O)cc1, the Potency is reported as inconclusive: 89.1 µM [inhibitor, single point].
CN1CCN(C(=S)c2ccc([N+](=O)[O-])cc2)CC1 was tested, and the Potency was inconclusive: 35.5 µM [inhibitor, single point].
For CC[n+]1c(-c2ccccc2)c2cc(N)ccc2c2ccc(N)cc21, the Potency was inconclusive: 50.1 µM [inhibitor, partial curve].
For Oc1ccc(O)c2c1C1(Cl)C(Cl)=C(Cl)C2(Cl)C1(Cl)Cl, the Potency was inconclusive: 50.1 µM [inhibitor, partial curve].
COc1ccc(N2CC(C(=O)NCc3ccco3)CC2=O)cc1 (stereo not given) was tested, and the Potency was inconclusive: 31.6 µM [inhibitor, single point].
For c1ccc(-c2ccc(-c3n(-c4ccccn4)c4ccccc4[n+]3-c3ccccn3)cc2)cc1, the Potency was inconclusive: 56.2 µM [inhibitor, partial curve].
With CCCN(C(=O)c1cc2c(=O)oc3ccccc3c2s1)c1cccc(Cl)c1 the Potency was inconclusive: 100 µM [inhibitor, partial curve, poor fit].
For COc1ccc(C=C2C(=O)N(C)C(=O)N(C)C2=O)cc1CSc1ccccn1, the Potency was inconclusive: 79.4 µM [inhibitor, single point].
COC(=O)C1=C(c2ccc3ccccc3c2)C[C@@H]2CC[C@H]1N2C(=O)NCc1ccco1 was tested, and the Potency was inconclusive: 4.47 µM [inhibitor, partial curve, poor fit].
With Cc1cc(C)n2nc(SC(C)C(=O)N3CCC4(CC3)OCCO4)nc2n1 (stereo not given) the “activity change, negative = inhibition” value was inactive: -22.2%.
In the case of Cc1nc2cc(C(F)(F)F)ccc2n1C1CCN(Cc2nnnn2CCc2ccccc2)CC1, the “activity change, negative = inhibition” value is reported as inactive: -21.4%.
For CC(=O)CCC(C)=O, the “activity change, negative = inhibition” value was inactive: -15.9%.
CN1C(=O)N(C)C(=O)C(CCc2ccncc2)(CCc2ccncc2)C1=O was tested, and the “activity change, negative = inhibition” value was inactive: -12%.
For CCCCCn1c(SCCCC)nc2c1c(=O)[nH]c(=O)n2C, the Potency was inconclusive: 79.4 µM [inhibitor, partial curve].
For COc1ccc(NC(=O)C(=O)NNC(=O)C(C)Oc2ccc(Cl)cc2Cl)cc1 (stereo not given), the Potency was inconclusive: 50.1 µM [inhibitor, partial curve].
CCOC(=O)[C@]12Cc3cc(N(C)C)ccc3[C@H]1N(Cc1ccccc1)C(=O)c1ccccc12 was tested, and the Potency was active: 15.8 µM.
For O=C1NC(=O)N(Cc2ccco2)C(=O)/C1=C\c1cccn1CCOc1ccc(Cl)cc1, the Potency was inconclusive: 50.1 µM [inhibitor, partial curve].
CC1(C)C2([N+](=O)[O-])CN3CC1([N+](=O)[O-])CN(C2)C3c1ccccn1 (stereo not given) was tested, and the Potency was inconclusive: 79.4 µM [inhibitor, partial curve].
For CSc1ccc(C(=O)C2CCCN(Cc3cc4ccccc4[nH]3)C2)cc1 (stereo not given), the Potency was active: 11.2 µM.
With C=CC[N+]1(C)CC[C@]23c4c5ccc(O)c4O[C@H]2C(=O)CC[C@@]3(O)[C@H]1C5 (stereo not given in full) the Potency was inconclusive: 50.1 µM [inhibitor, partial curve].
CCOP(=O)(OCC)C(Nc1cccc(C(F)(F)F)c1)c1ccc(C)cc1 (stereo not given) was tested, and the Potency was inconclusive: 22.4 µM [inhibitor, full curve].
CCc1ccc(NC(=O)c2cccn(Cc3cccc([N+](=O)[O-])c3)c2=O)cc1 was tested, and the Potency was inconclusive: 39.8 µM [inhibitor, partial curve].
For C[C@H](CO)N1C[C@H](C)[C@@H](CN(C)Cc2ccc(-c3ccccc3)cc2)Oc2c(NC(=O)c3ccncc3)cccc2C1=O, the Potency was inconclusive: 50.1 µM [inhibitor, full curve, poor fit].
O=C(N/N=C/c1ccncc1)c1cnccn1 was tested, and the Potency was inconclusive: 22.4 µM [inhibitor, single point].
In the case of Cc1ccc(OCCOc2cccc(C=C3C(=O)NC(=O)NC3=O)c2)cc1, the Potency is reported as inconclusive: 89.1 µM [inhibitor, single point].
For CN1C(=O)/C(=C/c2cccn2-c2ccc3ccccc3c2)C(=O)NC1=S, the Potency was inconclusive: 50.1 µM [inhibitor, partial curve].
COc1ccc(CN2CCCC(C(=O)c3ccc(Cl)cc3)C2)c(OC)c1 (stereo not given) was tested, and the Potency was inconclusive: 15.8 µM [inhibitor, full curve, poor fit].
With NS(=O)(=O)c1ccc(-c2ccc(C=C3C(=O)NC(=O)NC3=O)o2)cc1 the Potency was inconclusive: 56.2 µM [inhibitor, partial curve].
CCCCn1c(C)c(C(=O)OCC)c2c(CN3CCOCC3)c(O)ccc21 was tested, and the Potency was inconclusive: 89.1 µM [inhibitor, partial curve].
CCC(C)N1C(=O)/C(=C\c2cnc(N(C)C)nc2)C(=O)NC1=S (stereo not given) was tested, and the Potency was inconclusive: 28.2 µM [inhibitor, single point].
CC(=O)Nc1ccc(N=Cc2c(O)n(Cc3ccco3)c(=O)[nH]c2=O)cc1 was tested, and the “activity change, negative = inhibition” value was inactive: -24.9%.
For c1ccc(C2(N3CCCCC3)CCCCC2)cc1, the “activity change, negative = inhibition” value was inactive: -26.9%.
CCN(CCCl)Cc1ccccc1Br was tested, and the Potency was inconclusive: 89.1 µM [inhibitor, single point].
For C[C@@]12C(=O)N(Cc3ccco3)CC(=O)N1[C@H]1c3ccccc3OC[C@@H]1[C@@H]2c1ccccc1, the Potency was inconclusive: 70.8 µM [inhibitor, partial curve].
In the case of COc1cc(/C=C/C(=O)c2c(O)n(CCc3ccccc3)c(=O)[nH]c2=O)ccc1O, the “activity change, negative = inhibition” value is reported as inactive: -9%.
For Cc1cc(OCC(=O)N2CCC(C(N)=O)CC2)c2c3c(c(=O)oc2c1)CCCC3, the Potency was inconclusive: 89.1 µM [inhibitor, single point].
For CC1=NNC(=O)C1Br (stereo not given), the Potency was active: 89.1 µM.
In the case of COc1ccc(C(=O)Nc2ccc(Cl)cc2C(=O)c2ccccc2)c(OC)c1, the “activity change, negative = inhibition” value is reported as inactive: -6.86%.
N#Cc1ccccc1Cn1cc(C(=O)c2cccs2)c2ccccc21 was tested, and the Potency was inconclusive: 79.4 µM [inhibitor, partial curve].
With Cc1cccc(OCC(=O)N2CCN(Cc3ccc4c(c3)OCO4)CC2)c1 the Potency was inconclusive: 0.631 µM [inhibitor, partial curve, poor fit].
With C[C@H](CCC(=O)O)[C@H]1CC[C@H]2[C@@H]3CC[C@@H]4C[C@H](O)CC[C@]4(C)[C@H]3CC[C@]12C the Potency was inconclusive: 79.4 µM [inhibitor, partial curve].
For CCOc1cc2c(cc1OCC)-n1cccc1C(c1c(O)cccc1OC)NC2 (stereo not given), the Potency was active: 50.1 µM.
For CN(C)CCc1nn[nH]n1, the Potency was inconclusive: 14.1 µM [inhibitor, partial curve, poor fit].
In the case of O=C1C2CCCC1C(N1CCCCC1)CC2 (stereo not given), the “activity change, negative = inhibition” value is reported as inactive: -20%.
For Cc1cc(O)c2c(c1)C(=O)c1cc(O)cc(O)c1C2=O, the Potency was active: 44.7 µM.
In the case of N/C(=N\[N+](=O)[O-])N1CCN(C(=O)Oc2ccccc2)CC1, the “activity change, negative = inhibition” value is reported as inactive: 0%.
COC(=O)C(C)Oc1ccc(Cc2ncc(C(F)(F)F)cc2Cl)cc1 (stereo not given) was tested, and the “activity change, negative = inhibition” value was inactive: 56.2%.
In the case of CN1C(=O)C(=Cc2ccc(SC3CCCCC3)o2)C(=O)N(C)C1=O, the Potency is reported as inconclusive: 56.2 µM [inhibitor, partial curve].
With COC(=O)C1=C(c2cccc(OCc3ccccc3)c2)C[C@@H]2CC[C@H]1N2C(=O)NC1CCN(Cc2ccccc2)CC1 the Potency was inconclusive: 50.1 µM [inhibitor, partial curve].
In the case of CCC(=O)Nc1nc2ccccc2n1CCN(C)C, the Potency is reported as active: 39.8 µM.
In the case of Cc1nc2ccccn2c1P(=S)(c1ccccc1)c1ccccc1, the Potency is reported as inconclusive: 63.1 µM [inhibitor, partial curve, poor fit].
O=C1NC(=O)C(=Cc2ccc(-c3ccc(F)cc3O)o2)C(=O)N1 was tested, and the Potency was inconclusive: 63.1 µM [inhibitor, partial curve, poor fit].
With Cc1oc(-c2ccc(Cl)cc2)nc1CN1CCC(C(=O)NCCCN2CCN(c3cccc(Cl)c3)CC2)CC1 the Potency was inconclusive: 50.1 µM [inhibitor, partial curve].
For CCOC(=O)CC(NC(=O)C(Cc1ccc(N(CCCl)CCCl)cc1)NC(C)=O)C(=O)OCC (stereo not given), the Potency was active: 12.6 µM.
CCOc1cc2c(cc1OCC)-n1cccc1C(c1ccccc1OC)NC2 (stereo not given) was tested, and the Potency was inconclusive: 56.2 µM [inhibitor, partial curve].
With Cc1cc(-n2c(/C=C/c3cccs3)nc3ccccc3c2=O)ccc1Br the Potency was inconclusive: 39.8 µM [inhibitor, partial curve].
With CCCCC(=O)N/N=C/c1c(O)n(Cc2ccco2)c(=O)[nH]c1=O the Potency was inconclusive: 79.4 µM [inhibitor, partial curve].
For COC12C(COC(N)=O)C3=C(C(=O)C(C)=C(N)C3=O)N1CC1C2N1C (stereo not given), the Potency was inconclusive: 50.1 µM [inhibitor, partial curve].
In the case of CN(C)CCN(C(=O)c1ccc(S(=O)(=O)N2CCc3ccccc32)cc1)c1nc2ccc(F)cc2s1, the Potency is reported as inconclusive: 44.7 µM [inhibitor, partial curve].
With C=CCN1C(=O)NC(=O)/C(=C/c2cc3c4c(c2)CCCN4CCC3)C1=O the Potency was inconclusive: 31.6 µM [inhibitor, single point].
For COCCN1C(=O)NC(=O)/C(=C\c2ccc(Br)cc2)C1=O, the Potency was inconclusive: 11.2 µM [inhibitor, partial curve, poor fit].
CSc1ccc(CN2CCN(C(=O)Cc3ccccc3)CC2)cc1 was tested, and the Potency was active: 20 µM.
With Cc1ccc(NC(=O)N(Cc2ccc3c(c2)OCO3)C2CCN(Cc3ccccc3)CC2)cc1F the Potency was inconclusive: 25.1 µM [inhibitor, full curve].
For Cc1ccc(C)c(N2CCN(C(=O)C3CCCN(S(=O)(=O)c4cccc5nsnc45)C3)CC2)c1 (stereo not given), the Potency was inconclusive: 12.6 µM [inhibitor, partial curve].
With O=[N+]([O-])c1cccc(NP(=O)(Oc2ccccc2)Oc2ccccc2)c1 the Potency was inconclusive: 50.1 µM [inhibitor, partial curve].
